Reference: patent US20150376286A1 (Amgen, published 2015)

T1: cynomolgus CGRP receptor (cynoCRLR + cynoRAMP1) (cynomolgus monkey)
T1 chain 1: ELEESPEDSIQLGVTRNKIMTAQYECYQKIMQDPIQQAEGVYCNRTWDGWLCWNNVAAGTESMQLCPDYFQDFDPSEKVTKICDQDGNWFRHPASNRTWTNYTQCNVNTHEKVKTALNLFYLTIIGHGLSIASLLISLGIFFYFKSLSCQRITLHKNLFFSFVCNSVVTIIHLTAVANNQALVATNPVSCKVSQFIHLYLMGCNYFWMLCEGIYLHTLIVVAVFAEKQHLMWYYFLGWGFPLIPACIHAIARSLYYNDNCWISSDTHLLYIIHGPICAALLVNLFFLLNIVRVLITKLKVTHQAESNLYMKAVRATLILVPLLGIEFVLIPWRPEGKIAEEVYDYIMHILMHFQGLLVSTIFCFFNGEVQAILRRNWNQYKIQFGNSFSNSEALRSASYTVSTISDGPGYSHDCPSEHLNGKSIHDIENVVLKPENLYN
T1 chain 2: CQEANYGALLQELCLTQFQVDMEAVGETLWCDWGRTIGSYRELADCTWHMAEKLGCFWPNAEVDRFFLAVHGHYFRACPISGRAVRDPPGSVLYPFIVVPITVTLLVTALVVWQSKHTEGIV

T2: soluble CGRP receptor-muFc fusion protein (human)
T2 construct: also called CGRP R-muFc; not shown: mouse Fc
T2 chain 1: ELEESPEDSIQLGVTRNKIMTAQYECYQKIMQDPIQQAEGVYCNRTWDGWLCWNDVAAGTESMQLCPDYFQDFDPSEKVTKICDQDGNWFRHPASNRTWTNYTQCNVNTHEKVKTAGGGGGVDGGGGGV
T2 chain 2: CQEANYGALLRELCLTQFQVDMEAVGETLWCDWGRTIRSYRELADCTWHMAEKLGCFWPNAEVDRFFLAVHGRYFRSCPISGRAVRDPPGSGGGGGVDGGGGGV


Key:
[1] = biological target: human adrenomedullin receptor 1 (hCRLR + hRAMP2) (human, UniProt O60895 43-175); experiment: cell-based or functional assay
Sequence of UniProt O60895 (O60895 43-175): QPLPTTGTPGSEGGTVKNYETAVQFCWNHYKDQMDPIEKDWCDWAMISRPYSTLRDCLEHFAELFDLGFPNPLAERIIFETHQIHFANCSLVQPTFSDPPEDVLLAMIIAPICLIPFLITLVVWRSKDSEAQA

[2] = biological target: human adrenomedullin receptor 2 (hCRLR + hRAMP3) (human, UniProt O60896 24-148); experiment: cell-based or functional assay
Sequence of UniProt O60896 (O60896 24-148): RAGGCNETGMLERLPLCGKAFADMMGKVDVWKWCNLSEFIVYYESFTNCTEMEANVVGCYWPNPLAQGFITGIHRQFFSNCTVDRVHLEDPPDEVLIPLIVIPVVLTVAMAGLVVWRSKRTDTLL

[3] = biological target: rat CGRP receptor (rat, UniProt Q63118 24-464; Q9JJ74 27-148); experiment: cell-based or functional assay
Sequence of UniProt Q63118 (Q63118 24-464 limits assumed, chain 1 of 2): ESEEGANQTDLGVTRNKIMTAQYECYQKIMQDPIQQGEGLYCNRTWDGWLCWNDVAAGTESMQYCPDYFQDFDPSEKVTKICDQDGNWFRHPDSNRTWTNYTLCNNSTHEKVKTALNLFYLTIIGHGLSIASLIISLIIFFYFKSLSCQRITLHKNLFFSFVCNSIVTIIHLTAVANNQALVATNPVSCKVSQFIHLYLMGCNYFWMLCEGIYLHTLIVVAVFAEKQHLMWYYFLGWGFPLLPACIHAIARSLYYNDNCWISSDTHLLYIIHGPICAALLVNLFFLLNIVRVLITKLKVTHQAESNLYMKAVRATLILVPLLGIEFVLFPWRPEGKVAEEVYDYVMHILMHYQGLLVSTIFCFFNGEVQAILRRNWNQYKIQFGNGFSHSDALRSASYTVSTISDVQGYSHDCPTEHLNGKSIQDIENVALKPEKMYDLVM
Sequence of UniProt Q63118 (Q9JJ74 27-148 limits assumed, chain 2 of 2, further chain): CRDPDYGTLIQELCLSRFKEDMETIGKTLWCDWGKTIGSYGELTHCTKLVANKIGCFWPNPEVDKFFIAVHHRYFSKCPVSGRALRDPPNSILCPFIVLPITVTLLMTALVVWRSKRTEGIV

[4] = biological target: human amylin AMY1 receptor (hCTR + hRAMP1) (human, UniProt P30988 25-474); experiment: cell-based or functional assay
Sequence of UniProt P30988 (P30988 25-474): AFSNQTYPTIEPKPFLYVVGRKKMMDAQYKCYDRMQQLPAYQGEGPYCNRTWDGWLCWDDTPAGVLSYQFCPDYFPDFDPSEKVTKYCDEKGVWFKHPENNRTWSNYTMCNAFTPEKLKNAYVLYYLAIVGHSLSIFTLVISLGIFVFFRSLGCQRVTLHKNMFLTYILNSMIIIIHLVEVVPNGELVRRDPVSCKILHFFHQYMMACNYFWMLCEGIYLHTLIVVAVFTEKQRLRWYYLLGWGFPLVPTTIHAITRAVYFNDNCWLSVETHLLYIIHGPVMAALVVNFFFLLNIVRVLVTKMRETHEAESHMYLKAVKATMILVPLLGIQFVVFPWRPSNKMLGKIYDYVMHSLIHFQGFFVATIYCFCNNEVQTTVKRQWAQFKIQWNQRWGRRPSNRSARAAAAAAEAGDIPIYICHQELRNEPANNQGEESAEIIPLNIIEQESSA

[5] = biological target: T1, cynomolgus CGRP receptor (cynoCRLR + …); experiment: cell-based or functional assay
[6] = biological target: T2, soluble CGRP receptor-muFc fusion …; experiment: Western blot
Procedure: The sample containing βME was then boiled for 4 min. […] Gels were electroblotted onto 0.2 μm nitrocellulose filters (Invitrogen). The blots were washed with Tris-buffered saline+1% Tween 20 (TBST) and then blocked with TBST+5% powered dry milk for 30 min. The blots were cut into strips along the molecular weight marker lanes. […] Blots were incubated with the antibodies for one hour followed by 3×10 min washes with TBST+1% milk. The blots treated with the huCGRP R antibodies were then incubated with goat anti-mouse IgG-Fc-HRP (1:10,000 in TBST+1% milk) and the blots treated with anti-huRAMP1 (N-20 anti-RAMP1 goat polyclonal antibody, Santa Cruz Biotech, CA) were incubated with rabbit anti-goat IgG-Fc-HRP (1:10,000) for 20 min. Blots were washed 3×15 min with TBST. The huCGRP R and anti-huRAMP1 antibody blots were treated with Pierce Supersignal West Pico Detection reagent, and the anti-mouse and anti-human IgG-Fc-HRP blots were treated with Pierce standard Detection Reagent (1 min.). Blots were then exposed with Kodak Biomax MS X-ray film.

cAMP assay IC50 [1] [nM]	cAMP assay IC50 [2] [nM]	cAMP assay IC50 [3] [nM]	cAMP assay IC50 [4] [nM]	cAMP assay IC50 [5] [nM]	binding result [6]	Binder
> 1000	> 1000	> 1000	> 1000	4.74	–	1H7 (antibody, human IgG2, lambda, V domains shown) VH: [about 100 residues not spelt out]DRTGYSISWSSYYYYYGMDVWGQGTTVTVSS VL: QSVLTQPPSASGTPGQRVTISCSGSSSNIGSNYVYWYQQLPGAAPKLLIFRSNQRPSGVPDRFSGSKSGTSASLAISGLRSEDEADYYCAAWDDSLSGWVFGGGTKLTVLG
> 1000	> 1000	> 1000	> 1000	4.44	binds	9F5 (antibody, human IgG2, lambda, V domains shown, also called 09F5; 09F5.2) VH: [about 100 residues not spelt out]DRTGYSISWSSYYYYYGMDVWGQGTTVTVSS VL: QSVLTQSPSASGTPGQRVTISCSGSSSNIGSNYVYWYQQLPGAAPKLLILRNNQRPSGVPDRFSGSKSGTSASLTISGLRSEDEADYYCAAWDDSLSGWVFGGGTKLTVLG
